SMILES strings stand for the structures. The whole screen tested about 48,000 compounds, of which about 550 (1.1%) were called active. Not shown: some 4% with an inconclusive outcome. Rule as the data show it: active = potency below about 15 µM; inconclusive = mostly about 16 µM to 33 µM; inactive = weaker than that. This is one part of the list. Where only a bound is given, the exact number is not on record here.
Potency is read from the fitted curve at half-maximal effect.

UniProt P04062, sequence (P04062 whole entry, looked up): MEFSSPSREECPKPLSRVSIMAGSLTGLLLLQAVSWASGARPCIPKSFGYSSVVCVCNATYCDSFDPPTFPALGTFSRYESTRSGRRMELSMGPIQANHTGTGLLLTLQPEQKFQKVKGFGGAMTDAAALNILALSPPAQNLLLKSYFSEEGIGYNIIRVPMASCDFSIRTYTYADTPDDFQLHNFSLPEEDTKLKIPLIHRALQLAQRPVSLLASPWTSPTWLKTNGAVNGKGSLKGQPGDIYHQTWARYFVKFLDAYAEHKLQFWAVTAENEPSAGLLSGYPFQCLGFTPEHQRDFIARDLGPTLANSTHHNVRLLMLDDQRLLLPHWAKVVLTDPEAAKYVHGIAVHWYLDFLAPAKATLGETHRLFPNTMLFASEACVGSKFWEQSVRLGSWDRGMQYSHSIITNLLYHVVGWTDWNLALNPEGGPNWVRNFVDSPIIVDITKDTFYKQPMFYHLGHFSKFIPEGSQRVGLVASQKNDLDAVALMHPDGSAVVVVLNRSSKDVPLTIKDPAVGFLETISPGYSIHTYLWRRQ

In the experiment the target is Lysosomal acid glucosylceramidase (Homo sapiens) (UniProt P04062). Nature of the experiment: Glucocerebrosidase.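 Also: the screen sought inhibitors.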 As to conditions: purified enzyme, resorufin glucoside fluorescence (screen aimed at inhibitors), 20 min; series mostly up to 77 µM. In a few lines:
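Wild-type enzyme at 0.2 nM final in 50mM citric acid/KH2PO4, 10mM sodium taurocholate, 0.01% tween-20, pH 5.9, with resorufin beta-D-glucopyranoside at 30 uM final. Compounds titrated, 20 min at RT, red fluorescence read; AC50 from titration.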
Regarding `CN(C)c1ccc(CNCCC2(O)CCOC(C)(C)C2)cc1` (stereo unspecified), the Potency was inactive: > 76.9 µM.

With `Cc1nc2nc(-c3cccs3)cn2nc1C`, the Potency was inactive: > 76.9 µM.

On to `FC(F)(F)c1ccc(-n2ccnc2)nc1`, for which the Potency is inactive: > 76.9 µM.

On to `CCC1(C)Cc2ccccc2/C(=C/C(=O)N2CCCCC2)N1` (stereo unspecified), for which the Potency was inactive: > 15.4 µM.

Take `CCOC(=O)c1c(-c2cccs2)csc1NC(=O)c1ccco1`: the Potency was inactive: > 76.9 µM.

As for `Cc1ccc(NC(=O)CSc2n[nH]c(-c3ccncc3)n2)cc1`, the Potency is inactive: > 76.9 µM.

Take `CCC(=O)N1c2ccc(S(=O)(=O)CCC(=O)N3CCn4c3nc3ccccc34)cc2CC1C` (stereo unspecified): the Potency was inactive: > 76.9 µM.

In the case of `CC1(C)Cc2nc3sc4c(=O)[nH]cnc4c3cc2CS1`, the Potency was inactive: > 76.9 µM.

For the compound `Cc1ccc(-n2c(=O)cc(N3CCc4ccccc4C3)[nH]c2=O)cc1`, the Potency is inactive: > 76.9 µM.

Consider `CN(c1ccccc1C(=O)Nc1ccc2c(c1)OCO2)S(C)(=O)=O`, for which the Potency was inactive: > 76.9 µM.

Regarding `O=C(c1ccc(S(=O)(=O)N2CCCCC2)cc1)N1CCCc2ccccc21`, the Potency was inactive: > 76.9 µM.

On to `Cc1nnc2sc(-c3ccncc3)nn12`, for which the Potency is inactive: > 76.9 µM.

On to `CCn1cnc2c1c(=O)n(Cc1csc(-c3ccccc3)n1)c(=O)n2Cc1ccccc1`, for which the Potency was inactive: > 76.9 µM.

For the compound `COc1ccccc1-c1nnc(SCC(=O)N2CC(C)CC(C)C2)o1` (stereo unspecified), the Potency is inactive: > 76.9 µM.

On to `Cc1ccc(C)c(N2CCN(c3cc(C)nc4nnnn34)CC2)c1`, for which the Potency was inactive: > 76.9 µM.

For `Cc1ccc(-c2cc(-c3ccc(C)o3)nc(N)c2C#N)cc1`, the Potency is inactive: > 76.9 µM.

Consider `Cc1ccccc1NC(=O)CSc1nnc(-c2ccoc2C)n1CCc1ccccc1`, for which the Potency is inactive: > 76.9 µM.

Consider `O=S(=O)(Nc1ccc2c(c1)OCCO2)c1cccs1`, for which the Potency was inactive: > 76.9 µM.

For `Cc1ccc(S(=O)(=O)N2CCCC(c3nnc4n3-c3ccccc3SC4)C2)cc1` (stereo unspecified), the Potency is inactive: > 76.9 µM.

With `CCOC(=O)c1cnn(CCOC(=O)C2CC2)c1NC(=O)C1CC1`, the Potency is inactive: > 76.9 µM.

For `COC(=O)c1ccc(NC(=O)Cc2ccccc2)cc1`, the Potency is inactive: > 76.9 µM.

Consider `COCC(C)n1c(C)cc(C(=O)COc2ccc(S(=O)(=O)N3CCOCC3)cc2Cl)c1C` (stereo unspecified), for which the Potency was inactive: > 76.9 µM.

Regarding `CCCC(=O)N=C1SC2CS(=O)(=O)CC2N1c1ccc(CC)cc1` (stereo unspecified), the Potency is inactive: > 76.9 µM.

Regarding `COc1ccc(OCC(O)CNC(=O)c2ccc(Br)cc2)cc1` (stereo unspecified), the Potency was inactive: > 76.9 µM.

With `Cc1ccsc1C(=O)Nc1ccc(C(=O)O)cc1`, the Potency is inactive: > 76.9 µM.

For the compound `Cc1cc(=O)n2nc(N3CCCC(C(=O)NCc4ccco4)C3)sc2n1` (stereo unspecified), the Potency is inactive: > 76.9 µM.

As for `CCC(=O)N1CCN(c2ccccc2NC(=O)Cc2ccc(Cl)cc2)CC1`, the Potency was inactive: > 76.9 µM.

As to `Cc1cc(C)nc(SCc2nc(N)nc(-c3ccccc3O)n2)n1`, the Potency is inactive: > 76.9 µM.

Consider `COc1ccc(OC)c(NC(=O)C2CCCN(S(=O)(=O)c3c(C)noc3C)C2)c1` (stereo unspecified), for which the Potency is inactive: > 76.9 µM.

Regarding `CCCCS(=O)(=O)C(=C1Nc2ccccc2N1)S(=O)(=O)CCCC`, the Potency is inactive: > 76.9 µM.

Turning to `S=c1nc(-c2ccccc2)n(CCCN2CCOCC2)c2c1CCCC2`, the Potency was inactive: > 76.9 µM.

For the compound `O=C(CN1CCN(c2ccc(F)cc2)CC1)N1CCOCC1`, the Potency was inactive: > 76.9 µM.

For the compound `Cc1cc(C)nc(SCC(=O)Nc2ccc(N3CCOCC3)c(Cl)c2)n1`, the Potency was inactive: > 76.9 µM.

For the compound `CCCc1[nH]nc2c1C(c1cc(OC)cc(OC)c1)C(C#N)=C(N)O2` (stereo unspecified), the Potency is inactive: > 76.9 µM.

As to `O=C(CN1CCCC1)Nc1ccc(NC(=O)Nc2ccccc2)cc1`, the Potency entry is “inactive”.

As for `CCCCn1nnnc1NCc1cccnc1`, the Potency was inactive: > 76.9 µM.

With `O=C(Cc1nn[nH]n1)NCc1ccccc1Cl`, the Potency was inactive: > 76.9 µM.

For the compound `COc1ccccc1NC(=O)c1cc(C(=O)O)ccc1C(=O)O`, the Potency was inactive: > 76.9 µM.

`O=C(CSc1nnc(CNc2ccccc2)o1)N1CCN(C(=O)c2ccco2)CC1`: the Potency is inactive: > 76.9 µM.

Consider `Cn1c(=O)oc2cc(S(=O)(=O)N3CCN(Cc4ccc5c(c4)OCO5)CC3)ccc21`, for which the Potency is inactive: > 76.9 µM.

`Oc1cnc2ccccc2c1CN1CCOCC1`: the Potency is inactive: > 76.9 µM.

As for `CC[C@H](C)[C@H](NS(=O)(=O)c1ccc(C)cc1)C(=O)N1CCC(C(=O)N[C@H](C(=O)O)C(C)C)CC1`, the Potency was inactive: > 76.9 µM.

With `COCC(=O)N(Cc1ccccc1)c1ccccn1`, the Potency is inactive: > 76.9 µM.

Turning to `S=c1[nH]nc(-c2ccccc2)n1CC1CCCO1` (stereo unspecified), the Potency is inactive: > 76.9 µM.

With `COc1ccccc1-n1c(C)nnc1SCC(=O)Nc1cccc(C(C)=O)c1`, the Potency is inactive: > 76.9 µM.

On to `O=C(NCC(F)(F)F)Nc1ncccn1`, for which the Potency was inactive: > 76.9 µM.

With `C=CCN(C(=O)CN1CCOCC1)c1nc(C)c(-c2ccccc2)s1`, the Potency is inactive: > 76.9 µM.

Regarding `C/C=C/c1ccc(OCCCN2C(=O)NC(C)(C)C2=O)c(OC)c1`, the Potency is inactive: > 76.9 µM.

With `CC(=O)N1CCN(S(=O)(=O)c2cccc(C(=O)Nc3ccc4c(c3)CCC4)c2)CC1`, the Potency is inactive: > 76.9 µM.

`COc1ccc2nc(NC(=O)C(NS(=O)(=O)c3cccs3)C(C)C)sc2c1` (stereo unspecified): the Potency was inactive: > 76.9 µM.

As for `CCc1c(C)c2ccc(O)c(CN(C)C)c2oc1=O`, the Potency was inactive: > 76.9 µM.

`COc1cccc(N2CCN(C3OC(=O)c4ccccc43)CC2)c1` (stereo unspecified): the Potency was inactive: > 76.9 µM.

As to `COc1cc(C2=NOC(C(=O)N3CCN(c4ccc(F)cc4)CC3)C2)cc(OC)c1OC` (stereo unspecified), the Potency is inactive: > 76.9 µM.

As for `CC(=O)N1CC=C2C(C#N)=C(N)C(C#N)(C#N)C(C)C2C1` (stereo unspecified), the Potency is inactive: > 76.9 µM.

As to `N#Cc1cc2c(nc1SCC(O)CS(=O)(=O)Cc1ccccc1)CCCC2` (stereo unspecified), the Potency is inactive: > 76.9 µM.

On to `O=C(NCC1COc2ccccc2O1)c1cn(Cc2ccc(F)cc2)nn1` (stereo unspecified), for which the Potency was inactive: > 76.9 µM.

For the compound `CCOC(=O)c1ccc(Cn2c(-c3ccccc3)nnc2-c2ccccc2)o1`, the Potency is inactive: > 15.4 µM.

For the compound `CN1CCN(C(=O)c2cnn(-c3ccccc3)c2NC(=O)c2cccs2)CC1`, the Potency was inactive: > 76.9 µM.

With `Nc1c(S(=O)(=O)c2cccs2)c2nc3ccccc3nc2n1/N=C/c1cccc(O)c1`, the Potency is inactive: > 76.9 µM.

For `CCOc1ccc(-n2nc(C(=O)N3CCOCC3)c3ccccc3c2=O)cc1`, the Potency was inactive: > 76.9 µM.

As to `CN(C)c1cccc(N=C2C=C(N3CCOCC3)CC(C)(C)C2)c1`, the Potency is inactive: > 76.9 µM.

As for `CC(=O)N1CCN(C(=O)CCc2c[nH]c3ccccc23)CC1`, the Potency is inactive: > 76.9 µM.

On to `COc1ccc(N2CCN(C(=O)CSc3nnnn3-c3ccc4c(c3)OCCO4)CC2)cc1`, for which the Potency was inactive: > 76.9 µM.

Take `CCOc1ccccc1-n1c(CN2CCN(C(=O)c3ccco3)CC2)nc2ccccc2c1=O`: the Potency is inactive: > 76.9 µM.

For the compound `CCOc1cccc2cc(C(=O)N3CCN(C/C=C/c4ccccc4)CC3)c(=O)oc12`, the Potency is inactive: > 76.9 µM.

As for `O=C(O)CCC(NS(=O)(=O)c1ccc(-c2ccccc2)cc1)C(=O)O` (stereo unspecified), the Potency is inactive: > 76.9 µM.

Regarding `O=C(NCCN1CCOCC1)c1cc(-c2ccccc2)on1`, the Potency was inactive: > 76.9 µM.

As to `CSC1=C(C#N)C(c2ccc(C)cc2)C2=C(CCCC2=O)N1` (stereo unspecified), the Potency entry is “inactive”.

For the compound `CCOC(=O)c1c(Nc2nc(C)c(C(=O)NC)s2)sc(C)c1C`, the Potency was inactive: > 76.9 µM.

`N#CCSCC(=O)Nc1ccccc1`: the Potency was inactive: > 76.9 µM.

For `CC1CCC/C(=C\Nc2ccccc2C(=O)O)C1=O` (stereo unspecified), the Potency is inactive: > 76.9 µM.

`Cc1ccccc1NC(=O)Cn1c(C)nc2ccc(NC(=O)C3CC3)cc2c1=O`: the Potency was inactive: > 76.9 µM.

With `COC(=O)N1CCN(S(=O)(=O)c2ccc(F)cc2)CC1`, the Potency was inactive: > 76.9 µM.

Consider `CC(=O)c1ccc(OCCCC(=O)NCC(c2ccco2)N(C)C)cc1` (stereo unspecified), for which the Potency is inactive: > 76.9 µM.

For the compound `N#CCSc1nnc(Cc2ccc3c(c2)OCO3)o1`, the Potency was inactive: > 76.9 µM.

On to `Cc1cccc(NC(=O)c2cc(NC(=O)C3CC=CCC3C(=O)O)ccc2N2CCOCC2)c1` (stereo unspecified), for which the Potency was inactive: > 76.9 µM.

Take `Cc1ccc(NS(=O)(=O)c2cccc(C(=O)n3ncc(C#N)c3N)c2)c(C)c1`: the Potency is inactive: > 76.9 µM.

On to `Nc1nc(-c2cccnc2)nn1C(=O)c1ccco1`, for which the Potency is inactive: > 76.9 µM.

Take `CCCCOc1ccc(NC(=O)CN2CCN(C(=O)OCC)CC2)cc1`: the Potency is inactive: > 76.9 µM.

In the case of `CC(=O)c1c(C)[nH]c(C(=O)OCC(=O)Nc2cc(C)on2)c1C`, the Potency is inactive: > 76.9 µM.

For `Cc1cc2nc(C)n3c4ccccc4nc3n2n1`, the Potency is inactive: > 76.9 µM.

Turning to `Fc1ccc(-c2cc(C(F)(F)F)nc(-n3cncn3)n2)cc1`, the Potency is inactive: > 76.9 µM.

As for `CCCS(=O)(=O)N1CCCC(C(=O)NCCCN2CCCC2=O)C1` (stereo unspecified), the Potency was inactive: > 76.9 µM.

On to `Cc1ccccc1NC(=O)CSc1nc(Nc2ccccc2)nc(N2CCOCC2)n1`, for which the Potency is inactive: > 76.9 µM.

On to `Cc1nnc(SCC(=O)Nc2nccs2)s1`, for which the Potency was inactive: > 76.9 µM.

As for `CCc1nc2cc(C)nn2c2nc3ccccc3n12`, the Potency is inactive: > 76.9 µM.

Regarding `CCN1CCCC1CNC(=O)c1ccc(N2CCCC2=O)cc1` (stereo unspecified), the Potency was inactive: > 76.9 µM.

Take `CCn1c(SCC(=O)NC(=O)Nc2ccc3c(c2)OCCO3)nnc1-c1cccs1`: the Potency was inactive: > 76.9 µM.

`CC(OC(=O)c1cc2sccc2n1C)C(=O)NCc1cccs1` (stereo unspecified): the Potency is inactive: > 76.9 µM.

As for `COc1cc(C(=O)O)nc2ccccc12`, the Potency is inactive: > 76.9 µM.

Regarding `Cc1cc(C)c(S(=O)(=O)N2CCN(c3nc4c(c(=O)n(C)c(=O)n4C)n3C)CC2)c(C)c1`, the Potency was inactive: > 76.9 µM.

Source of the values: PubChem BioAssay AID360 (National Center for Advancing Translational Sciences (NCATS), 2006).
